{"source": "the RNAGym collection of RNA variant scans (doi:10.7554/elife.90254)", "parents": {"B1": {"name": "OR4K15 (parent)", "chain": "GUUAACGGUCAUAGGCCAUGGAAACUAGGAGCACCAUUUCGCUGCCAGUGAAGAAAUGAACAAAGAAAAUCUGGGCCAGGCAGGCAUCAAAAGAAAUAGUCUUGCGCUCAACCAGAAAGUCUGUAAUCAUUUUAAGGGUA"}}, "note": "Read counts are not given, so values of variants with three or more changes are uncertain.", "data": [{"variants_of": "B1", "assay": "self-cleavage, relative activity (ratio to wild type); higher = more cleavage; in vitro, sequencing; the parent is a self-cleaving ribozyme", "values": [{"variant": "GUUAACGGUCAUAGGCCAUGGAAAGUAGGAGCACCAUUUCGCUGCCAGUGAAGAAAUGAAUAAAGAAAAUCUGGGCCAGGCAGGCAUCAAAAGAAAUAGUCUUGCGCUCAACCAGGAAGUCUGUAAUCAUUUUAAGGGUA", "self-cleavage": 0.88}, {"variant": "GUUAACGGUCAUAGGCCAUGGAAAUUGGGAGCACCAUUUCGCUGCCGGUGAAGAAAUGAACAAAGAAAAUCUGGGCCAGGCAGGCAUCAAAAGAAAUAGUCUUGCGCUCAACCAGAAAGUCUGUAAUCAUUUUAAGGGUA", "self-cleavage": 1.06}, {"variant": "GUUAACGGUCAUAGGCCAUGGAAAUUAGGUGCACCAUUUCGCUGCCAGUGAAGAGAUGAACGAAGAAAAUCUGGGCCAGGCAGGCAUCAAAAGAAAUAGUCUCGCGCUCAACCAGAAAGUCUGUAAUCAUUUUAAGGGUA", "self-cleavage": 0.72}, {"variant": "GUUAACGGUCAUAGGCCAUGGAAAUUAGGAGCACCAUUUCGCUGCCAGUGAGGAAAUGAACGAAGAAAAUCUGGGCCAGGCAGGCAUCAAAAGAAAUAGUCUUGCGCUCAACCAGAAAGUCUGUGAUCAUUUUAAGGGUA", "self-cleavage": 1.35}, {"variant": "GUUAACGGUCAUAGGCCAUGGAAAUUAGGAGCACCAUUUCGCUGCCAGUGAAGAAGUGAACAAAGAAAAUCUGGGCCAGGCAGGCAUCAAAAGAAAUAGUCAUGCGCUCAACCAGAAAGUCUGUAAUCAUUUUAAGGGUA", "self-cleavage": 0.73}, {"variant": "GUUAACGGUCAUAGGCCAUGGAAAUUAGGAGCACCAUUUCGCUGCCAGUGAAGAAAUGAGCAAAGAAAAUCUGGGCCAGGCGGGCAUCAAAAGAAAUAGUCUUGCGCUCAACCAGAAAGUCUGUAAUCACUUUAAGGGUA", "self-cleavage": 0.26}, {"variant": "GUUAACGGUCAUAGGCCAUGGAAAUUAGGAGCACCAUUUCGCUGCCAGUGAAGAAAUGAGCAAAGAAAAUCUGGGCCAGGCAGGCAUCAAAAGAAAUAGUCUUGCGCGCAACCAGAAAGUCUGUAACCAUUUUAAGGGUA", "self-cleavage": 0.01}, {"variant": "GUUAACGGUCAUAGGCCAUGGAAAUUAGGAGCACCAUUUCGCUGCCAGUGAAGAAAUGAACAAAGAAGAUCUGGGCCAGGCGGGCAUCAAAAGAAAUAGUCUUGCGCUCAACCAGAAAGUCUGUGAUCAUUUUAAGGGUA", "self-cleavage": 0.14}, {"variant": "GUUAACGGUCAUAGGCCAUGGAAAUUAGGAGCACCAUUUCGCUGCCAGUGAAGAAAUGAACAAAGAAAGUCUGGGCCAGGCAGGCAUCAAAAGAAGUAGUCUUGCGCUCAACCAGAAAGUCUGUAAUCAUUUUAAGGGUA", "self-cleavage": 1.67}, {"variant": "GUUAACGGUCAUAGGCCAUGGAAAUUAGGAGCACCAUUUCGCUGCCAGUGAAGAAAUGAACAAAGAAAAUCUGGGCCAGGCAGGCAUCAAAAGAAAUGGUCUUGCGCCCAACCAGAAAGUCUGUAAUCAUUUUAAGGGUA", "self-cleavage": 0.04}, {"variant": "GUUAACGGUCAUAGGCCAUGGAAAUUAGGAGCACCAUUUCGAUGCCAGUGAAGAAAUAAACAAAGAAAAUCUGGGCCAGGCAGGCAUCAAAAGAAAUAGCCUUGCGCUCAACCAGAAAGUCUGUAAUCAUUUUAGGGGUA", "self-cleavage": 1.48}, {"variant": "GUUAACGGUCAUAGGCCAUGGAAAUUAGGAGCACCAUUUCGCUGCCAGUGAAGAAAUGAACAAAGAAAAUCUGGGCUAGGCAGGCAUCAAAAUAAAUAGUCUUGCGCUCAACCAGAAAGUCUGUAAUCAUUUUAAGGGUA", "self-cleavage": 1.29}, {"variant": "GUUAACGGUCAUAGGCCAUGGAAAUUAAGAGCACCAUUUCGCUGCCAGUGAAGAAAUGAACAAAGAAAAUCUGGGCCAGGCAGGCAUCAAAAGAAAUAGUCUUGCGCUCAGCCAGAAAGUCUGUAAUCAUUUUAAGGGUA", "self-cleavage": 0.04}, {"variant": "GUUAACGGUCAUAGGCCAUGGAAAUUAGGAGCACCAUUCCGCUGCCAGUGAAGAAAUGAACAAAGAAAAUCUGGGCCAGGCAGGCAUCAAAAGAAAUAGUCUCGCGCUCAACCAGAAAGUCUGUAAUCAUUUUAAGGGUA", "self-cleavage": 0.93}, {"variant": "GUUAACGGUCAUAGGCCAUGGAAAUUAGGAGCACCAUUUCGCUGCCAGUGAAGAAAUGAACAAAGAAAACCUGGGCCAGGCAGGCAUCAAAAGAAAUAGUCUCGCGCUCAACCAGAAAGUCUGUAAUCAUUUUAAGGGUA", "self-cleavage": 0.39}, {"variant": "GUUAACGGUCAUAGGCCAUGGAAAUUAGGAGCACCAUUUCGCUGCCAGUGAAGAAAUGAACAAAGAAAACCUGGGCCAGGCAGGCAUCAAAAGAAAUAGUCUUGCGCUCAACCAGAAAGUCUGUAAUCAUCUUAAGGGUA", "self-cleavage": 0.44}, {"variant": "GUUAACGGUCAUAGGCCAUGGAAAUUAGGAGCACCAUUUCGCUGCCAGUGAAGAAAUGAACAAAGAAAAUCAGGGCCAGGCAGGCAUCAAAAGAGAUAGUCUUGCGCUCAACCAGAAAGUCUGUAAUCAUUUUAAGGGUA", "self-cleavage": 0.35}, {"variant": "GUUAACGGUCAUAGGCCAUGGAAAUUAGGAGCACCAUUUCGCUGCCAGUGAAGAAAUGAACAAAGAAAAUCUGGGCCAGGCAGGCAUCAAAAGAAAUAGUCCUGCGCUCAACCAGAAAGCCUGUAAUCAUUUUAAGGGCA", "self-cleavage": 1.19}, {"variant": "GUUAACGGUCAUAGGCCAUGGAAACAGGGAGCACCAUUUCGCUGCCAGUGAUGAAAUGAACAAAGAAAAUCUGGGCCAGGCAGGCAUCAAAAGGAAUAGUCUUGCGCUCAACCAGAAAGUCUGUAGUCAUUUUAAGGGUA", "self-cleavage": 1.38}, {"variant": "GUUAACGGUCAUAGGCCAUGGAAACAGGGAGCACCACUUCGCUGCCAGUGAAGAAAUGAACAAAGAAAAUCUGGGCCAGGCAGGCAUCAAAAGAAAUAGUCUUGCGCUCAACCAGGAAGUCUGUAAUCAUUUUAAGGGUA", "self-cleavage": 0.42}, {"variant": "GUUAACGGUCAUAGGCCAUGGAAACAGGGAGCACCAUUUCGCUGCCAGUGAAGAAAUGAACAAAGAAAAUCUGGGCCAGGCAGGCACCAAAAGAAAUAGUCUUGCGCUCAACCAGAAAGUCUGUAAUCAUUUUAAGGGUA", "self-cleavage": 1.03}]}]}
